Assay results from PubChem BioAssay AID588453 (National Center for Advancing Translational Sciences (NCATS), 2011).
Screen size: about 390,000 compounds; about 4,000 (1%) were called active. The shares of active, inactive and inconclusive entries below differ from those in the screen. Calls follow the shape of the dose curve; as a rule, active = well fitted inhibition curve with a large enough effect; inconclusive = small, poorly fitted or top-dose-only effect; inactive = no such curve, though single readings can be large or run the other way. A potency beside an inconclusive call is a rough fit, not a confirmed value.

target: Thioredoxin reductase 1, cytoplasmic (Rattus norvegicus) (UniProt O89049); assay: qHTS Assay for Inhibitors of Mammalian Selenoprotein Thioredoxin Reductase 1 (TrxR1): qHTS; details: recombinant rTrxR1, NADPH fluorescence consumption, selenite substrate; series mostly up to 114 µM; activity change, negative = inhibition: at the top concentration; also: nearly all actives have a fitted effect of over 65% in size
UniProt O89049, sequence (O89049 whole entry, looked up): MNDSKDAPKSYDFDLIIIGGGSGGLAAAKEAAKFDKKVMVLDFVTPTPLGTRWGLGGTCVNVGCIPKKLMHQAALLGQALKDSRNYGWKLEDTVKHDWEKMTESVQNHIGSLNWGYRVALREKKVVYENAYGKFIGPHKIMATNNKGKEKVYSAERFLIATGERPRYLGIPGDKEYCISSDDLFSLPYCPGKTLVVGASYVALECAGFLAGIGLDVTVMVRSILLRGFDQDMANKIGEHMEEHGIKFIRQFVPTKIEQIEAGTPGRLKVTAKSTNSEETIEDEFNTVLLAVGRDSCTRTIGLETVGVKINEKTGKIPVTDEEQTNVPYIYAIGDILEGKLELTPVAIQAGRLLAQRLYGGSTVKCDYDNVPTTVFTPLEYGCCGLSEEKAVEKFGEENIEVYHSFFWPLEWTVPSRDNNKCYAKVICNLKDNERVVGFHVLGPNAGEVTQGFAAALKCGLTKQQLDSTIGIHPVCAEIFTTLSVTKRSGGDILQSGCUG
Text: The selenoprotein thioredoxin reductase (TrxR; EC 1.8.1.9) is a FAD containing homodimeric pyridine nucleotide-disulfide oxidoreductase with many cellular roles. Together with NADPH and its prime substrate thioredoxin (Trx), the enzyme forms the core of the Trx system. The mammalian Trx system exerts a wide spectrum of functions including redox regulation, antioxidant defense, regulation of transcription factors as well as support of cell growth and replication. Many of these functions involve the reduction of Trx, which may subsequently reduce a number of different substrates including ribonucleotide reductase, peroxiredoxins or NFkB. Mammalian TrxR itself also has a broad substrate specificity, reducing both protein and non-protein substrates, including low molecular weight compounds such as dehydroascorbate, lipoic acid, ubiquinone, and juglone. In addition, several drugs in clinical use for anticancer treatment are indeed known to target TrxR1.
This BioAssay is a validation of an NADPH fluorescence-based, dual-purpose qHTS rTrxR1 assay designed to find potential inhibitors and substrates of rTrxR1. For this particular BioAssay, actives are potential inhibitors. See related BioAssay for substrate data deposition.
NIH Molecular Libraries Probe Production Network [MLPCN]
NIH Chemical Genomics Center [NCGC]
Assay Provider: Elias Arner, Karolinska Institute
Assay protocol: 2 uL of reagents (buffer in column 4 as negative control and 90 nM rTrxR1 in columns 1-3 and 5-48) were dispensed into Greiner black solid-bottom 1,536-well assay plates, followed by 1 uL of NADPH (400 uM final concentration) to each well. The plates were centrifuged at 1000 rpm for 15 seconds and subsequently incubated for 5 min at room temperature (~22 deg C) to allow for rTrxR1 reduction. Compounds (23 nL) were then transferred via Kalypsys pin tool equipped with 1536-pin array (10 nL slotted pins, V&P Scientific, San Diego, CA). In addition, a duplicate 2-fold serial dilution of the control compounds auranofin, a known gold-based TrxR1 inhibitor, and juglone (5-hydroxy-1,4-naphthoquinone), a natural TrxR1 substrate, were pin-transferred to columns 2 and 3, respectively. After incubation for 15 min at room temperature (~22 deg C), 1 uL of selenite (400 uM final concentration) were dispensed to each well. The plate was immediately transferred to a ViewLux high-throughput CCD imager (PerkinElmer), wherein kinetic measurements of NADPH fluorescence (Ex 340 nm, Em 450 nm) were acquired (8 minute kinetic read, see Table 1). Read 1 was utilized to assess the capacity of a compound to serve as an rTrxR1 substrate, i.e. a decrease in NADPH fluorescence compared to the no-compound background is an indication of a substrate behavior for that particular compound. For inhibitory activity of a compound, delta values, computed as the difference in fluorescence intensity between the first and last reads of an 8-minute time kinetic window, were used. All reagents were diluted in an assay buffer consisting of 50 mM Tris-HCl, pH 7.5, 2 mM EDTA, and 0.01% Tween-20.
Throughout the screen, reagent bottle and all liquid lines were made light-tight to minimize reagent degradation. All screening operations were performed on a fully integrated robotic system (Kalypsys, San Diego, CA) containing one RX-130 and two RX-90 anthropomorphic robotic arms (Staubli, Duncan, SC). Library plates were screened starting from the lowest and proceeding to the highest concentration, and a 'double-pinning' step of the highest concentration was required to access higher concentrations of compounds. Vehicle-only plates, with DMSO being pin-transferred to the columns 5-48, were inserted uniformly at the beginning and the end of each library in order to monitor and record any shifts in the background, which can be affected by reagent dispensers or loss in enzyme activity over time. […]
% is scaled to controls: 0 for no effect and ±100 for the full control effect; potency is read from the fitted curve at half-maximal effect; tags tell the direction and shape of the fitted curve.

Compound | Potency | activity change, negative = inhibition
CCCN1C(=O)/C(=C\C=C2/C=CN(CC)c3ccccc32)SC1=S | inconclusive: 89.1 µM [inhibitor, partial curve, poor fit] | –
COc1cccc(CN2CCCN(Cc3ccc(F)cc3)S2(=O)=O)c1 | – | inactive: 17.4%
CCCS(=O)(=O)c1nc(S(=O)(=O)c2ccc(C)cc2)c(N2CCC(C(N)=O)CC2)s1 | inconclusive: 44.7 µM [inhibitor, partial curve] | –
NC(=O)c1ccc(NC(=O)CS(=O)(=O)c2cn(CC(=O)N3CCCC3)c3ccccc23)cc1 | inconclusive: 89.1 µM [inhibitor, partial curve, poor fit] | –
COc1cc(-c2nc3ncccn3c2Nc2ccc(C)cc2C)ccc1O | – | inactive: -25.8%
C=CCC(Nc1ccco1)c1ccccc1 (stereo unspecified) | – | inactive: -32.3%
O=C(Cc1cccs1)N/N=C\c1ccc([N+](=O)[O-])s1 | inconclusive: 10 µM [inhibitor, full curve] | –
COc1ccc(CNC(=S)NC(C)CCc2ccccc2)cc1 (stereo unspecified) | inconclusive: 79.4 µM [inhibitor, partial curve, poor fit] | –
CCOc1ccccc1NC(=O)Cn1cnc2sc(C)c(S(=O)(=O)N3CCC(C)CC3)c2c1=O | – | inactive: 10%
CC(=O)COc1nc2c(c(-c3ccco3)c1C#N)CCc1ccccc1-2 | – | inactive: 6.24% [at 57.1 µM]
COc1ccc(Cl)cc1-n1c(C)ccc1C | inconclusive: 50.1 µM [inhibitor, partial curve, poor fit] | –
CN1CCN(C(=O)CNC(=O)Cc2ccc(Cl)cc2)CC1 | – | inactive: 25.4%
CCCS(=O)(=O)N1CCCC(C(=O)NCCCOC)C1 (stereo unspecified) | – | inactive: 20.1% [at 57.1 µM]
COc1cc(/C=C(\C#N)C(=O)Nc2ccc(C(=O)O)cc2)ccc1OC(=O)c1cccc(F)c1 | inconclusive: 70.8 µM [inhibitor, single point] | –
COc1ccc(NC(=O)c2cc(-c3ccco3)nc3ccccc23)cn1 | active: 17.8 µM | –
Cc1c(Cc2ccccc2)c(=O)oc2cc(OCC(=O)N3CCC(C(=O)O)CC3)ccc12 | inconclusive: 89.1 µM [inhibitor, single point] | –
C#CCN1C(=O)C(O)(CC(=O)/C=C/C=C/c2ccccc2)c2ccccc21 (stereo unspecified) | active: 28.2 µM | –
O=C(O)COc1ccc2c(c1)O/C(=C\c1ccco1)C2=O | active: 44.7 µM | –
COC(=O)CS(=O)(=O)c1nc2ccccc2nc1N1CCCCC1 | inconclusive: 28.2 µM [inhibitor, partial curve, poor fit] | –
O=[N+]([O-])c1nn(-c2ccc3c(c2)OCCO3)n(O)c1=NC1CCN(Cc2ccccc2)CC1 | – | inactive: -3.94%
CC(C(=O)Nc1ccc2c(c1)OCO2)c1ccc([N+](=O)[O-])cc1 (stereo unspecified) | – | inactive: 7.2% [at 57.1 µM]
